The supplement of paper PMC10115384

B1: ADI-67869 (protein)
chain 1: QVQLVESGGGVVQPGRSLRLSCAASGFTFSTYDMHWVRQTPGKGLEWLAIISYDGSTKFYADSVKGRFTISRDNSKNTLSLQMSSLRAEDTAVYYCARPFYDDLSSGTFDYWGQGTLVTVSS
chain 2: DIQMTQSPSSLSASVGDRVTITCRASQSIGRYLNWYQQKPGKAPKLLIYTASSLQSGVPSRFSGSGSGTDFTLTISALQPEDFATYYCQQTYSTLSITFGQGTRLEIK
B2: ADI-67880 (protein)
chain 1: QVQLVESGGGVVQPGRSLRLSCATSGFTFSSYGMHWVRQAPGKGLEWVSVISYDGSSKYYADSVKGRFTISRDNSKSTLYLQMNSLRAEDTAVYYCAKEFYDSSGSFNTYFYYYYGMDVWGQGTTVTVSS
chain 2: QSALTQPASVSGSPGQSITISCTGTSSDVGLYNYVSWYQQHPGKAPKVMIYDVSNRPSGVSNRFSGSKAGNTASLTISGLQTEDEADYYCSSYTTSPTLVYVFGTGTKVTVL
B3: ADI-67910 (protein)
chain 1: EVQLVESGGGLVKPGGSLRLSCEASGLSFSSSWMTWVRQAPGKGLEWVGRIKIRKDGGTTDYAAPVKGRFTISRDDSKNTLYLQMNSLETEDTAVYYCTTINRKYDFWSGYSAEQLHWGQGTLVTVSS
chain 2: QSVLTQPPSVSAAPGQKVTISCSGNSSNIGTNYVSWYQQLPGTAPKLLIYDNNERPSGIPDRFSGSKSGTSATLGITGLQTGDEADYYCGAWDDSLNAGVFGGGTQLTVL
B4: ADI-67971 (protein)
chain 1: EVQLVESGGGLVQSGRSLRLSCAASGFTFEDYAVHWVRQAPGKGLEWVSGVSWNSGTIGYADSVKGRFFISRDNAKNSLYLQMNGLRPEDTGLYYCAKLGGANAYDFRSGPTAFDIWGQGTMVTVSS
chain 2: QSVLTQPPSASGTPGQRVTISCSGSTSNIGSNTANWYQQLPGTAPKLLIYSDNQRPSGVPDRFSGSKSGTSASLAISGLQSEDEADYYCATWDDSLNGVVVFGGGTKLTVL
B5: ADI-67977 (protein)
chain 1: EVQLVESGGGLVQPGRSLRLSCAASGFTFDDYAMHWVRQAPGKGLEWVSGVTWNSGTIGYADSVKGRFIISRDNAKNSLYLQMNSLRAEDTALYYCVKDMSVGDRSVEYYGMDVWGQGTTVTVSS
chain 2: SYVLTQPPSVSVAPGKTARITCGGNNIGSKSVHWYQRKPGQAPVLVIYYDSDRPSGIPGRFSGSNSGNTATLTISRVEAGDEADYYCQVWDSSSENVVFGGGTKLTVL
B6: ADI-67981 (protein)
chain 1: QVQLVQSGAEVKKPGSSVKVSCKASGDTFRIYAINWVRQAPGQGLEWMGGIIPISGAPFYAQRFQGRVTITADESTSTAYMELSSLRFEDTAVFYCARDGRHNYDSTGYYHNAFDIWGQGTMVTVSS
chain 2: DIQMTQSPSSLSTSVGDRVTITCRASQNISNYLNWYQQKPGKAPKLLIYAASSLQSGVPSRFSGTGSGTDFTLTISSLQPEDFGTYYCQQSYSSRTFGQGTKVEIK
B7: ADI-67983 (protein)
chain 1: EVQLVESGGGLVQPGGSLRLSCAASGFTFDDYAMHWVRQAPGKGLEWVSGISWSSDSGSIVYADSVEGRFTISRDNAKNSLYLQMNSLRTEDTALYYCAKGKWPSSPSFLTDYWGQGTLVTVSS
chain 2: DIQMTQSPSSLSASVGDRVTITCRASQGIRNYLAWYQQNPGKVPKLLIYAASTLQPGVPSRFSGSGSGTDYTLTISSLRPEDVGTYYCQKYNSVPLTFGGGTKVEIK
B8: ADI-67992 (protein)
chain 1: QVQLQESGPGLVKPSGTLSLTCTVSGGTISSGNWWSWVRQPPGKGLEWIGEIYHSGSTNYNPSLKSRVTISVDKSNNQFSLKLNFVTAADTAVYYCARLNYRFGELDYWGQGTLVTVSS
chain 2: NFMLTQPHSVSESPGKTVTISCTGSSGSIANNYVQWYQQRPGSAPSTVIYEDNQRPSGVPDRFSGSIDSSSNSASLTISGLKTEDEADYYCQSFDNTNRIFGGGTKLTVL

How the values were obtained:
Test in all cases: pseudovirus neutralization IC50; higher = weaker neutralization
[1] = biological target: SARS-CoV-2 Beta spike pseudovirus; conditions: system: VSV particle, 293T-ACE2 cells
Procedure: (§1)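 Single-round reporter pseudovirus mixed with dilutions of yeast-made human IgG and put on ACE2-bearing cells; IC50 from the dose curve.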

[2] = biological target: SARS-CoV-2 Delta spike pseudovirus; conditions: system: VSV particle, 293T-ACE2 cells
Procedure: as §1

[3] = biological target: SARS-CoV-2 index (Wuhan-Hu-1) spike pseudovirus
Procedure: as §1

[4] = biological target: SARS-CoV-2 Omicron BA.1 spike pseudovirus; conditions: system: MLV particle, HeLa-ACE2 cells
Procedure: as §1

[5] = system: VSV particle, 293T-ACE2 cells
[6] = system: MLV particle, HeLa-ACE2 cells

Binder	pseudovirus neutralization IC50 [1]	pseudovirus neutralization IC50 [2]	pseudovirus neutralization IC50 [3, 5]	pseudovirus neutralization IC50 [4]	pseudovirus neutralization IC50 [3, 6]
B1	> 1 µg/mL	> 1 µg/mL	> 1 µg/mL	–	–
B2	> 1 µg/mL	> 1 µg/mL	> 1 µg/mL	–	–
B3	> 1 µg/mL	> 1 µg/mL	–	–	–
B4	0.399 µg/mL	> 1 µg/mL	0.136 µg/mL	0.133 µg/mL	0.0599 µg/mL
B5	0.29 µg/mL	0.443 µg/mL	0.0759 µg/mL	0.0283 µg/mL	0.0297 µg/mL
B6	> 1 µg/mL	0.0117 µg/mL	0.0094 µg/mL	0.0444 µg/mL	0.00509 µg/mL
B7	> 1 µg/mL	0.0049 µg/mL	0.0031 µg/mL	–	0.0031 µg/mL
B8	> 1 µg/mL	> 1 µg/mL	> 1 µg/mL	–	–

Human monoclonal antibodies (heavy:light variable regions, translated from the printed DNA). IC50 against SARS-CoV-2 spike pseudoviruses, on VSV particles in 293T-ACE2 cells (24 h) or MLV particles in HeLa-ACE2 cells (72 h); lower = stronger; >1.0 µg/ml as printed. No active / inactive call per row; the paper counts an IC50 of 0.4 µg/ml or less on any variant as neutralizing. Only 98 of the paper's 459 antibodies have neutralization values; the two systems are not on one scale.
